Many values rest on one well or one pass, so single values are uncertain.
Assays:
CHO-K1 [1] = experiment: micronucleus frequency (% of nucleated events); higher = more micronuclei (genotoxic)
CHO-K1 [2] = experiment: relative survival (nuclei to bead ratio vs DMSO control) (% of vehicle control); higher = more surviving cells
Method: (§1)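 Flow-cytometric in vitro micronucleus assay (Litron MicroFlow) in CHO-K1 cells in 96-well plates, 19 concentrations (4.5-200 µM, n=1 per concentration). Without S9, cells were exposed for 24 h and sampled at 48 h. With Aroclor 1254-induced rat liver S9, cells were exposed for 3-4 h and sampled at 27-28 h. Read-outs are %MN and %hypodiploid nuclei relative to nucleated events, and relative survival as the nuclei-to-bead ratio versus the 1% DMSO vehicle control (x100).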

CHO-K1 [3] = experiment: hypodiploid nuclei frequency (% of nucleated events); higher = more hypodiploid events (aneugenic)
Method: as §1
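Throughout, for hypodiploid nuclei frequency (% of nucleated events): hypodiploid nuclei gated on a flow cytometer with 488 nm excitation after SYTOX Green staining, cultures at 37 °C, positive controls vinblastine without S9 and cyclophosphamide with S9.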
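Throughout, for micronucleus frequency (% of nucleated events): cells lysed with nuclei stained by SYTOX Green, then micronucleus-gated events counted against nucleated events by flow cytometry with 488 nm excitation.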
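Throughout, for relative survival (nuclei to bead ratio vs DMSO control): Lysed-cell nuclei stained with SYTOX Green and counted against counting beads by flow cytometry at 488 nm excitation, with vinblastine (no S9) and cyclophosphamide (plus S9) as positive controls.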

O=[N+]([O-])c1ccc(Cl)cc1 [1-Chloro-4-nitrobenzene]
Conditions	hypodiploid nuclei frequency, CHO-K1 [3] [%]	micronucleus frequency, CHO-K1 [1] [%]	relative survival, CHO-K1 [2]
concentration: 4.5 (µM), S9 metabolic activation: with S9, exposure time: 3-4 hours	0.34	2	95.5
concentration: 4.5 (µM), S9 metabolic activation: without S9, exposure time: 24 hours	0.88	1.94	90.8
concentration: 5.63 (µM), S9 metabolic activation: with S9, exposure time: 3-4 hours	0.26	1.88	88.7
concentration: 5.63 (µM), S9 metabolic activation: without S9, exposure time: 24 hours	0.62	1.92	113
concentration: 7.04 (µM), S9 metabolic activation: with S9, exposure time: 3-4 hours	0.18	0.86	70.5
concentration: 7.04 (µM), S9 metabolic activation: without S9, exposure time: 24 hours	0.52	1.9	113
concentration: 8.8 (µM), S9 metabolic activation: with S9, exposure time: 3-4 hours	0.26	1.66	79.5
concentration: 8.8 (µM), S9 metabolic activation: without S9, exposure time: 24 hours	1.12	2	116
concentration: 11 (µM), S9 metabolic activation: with S9, exposure time: 3-4 hours	0.22	1.16	71.4
concentration: 11 (µM), S9 metabolic activation: without S9, exposure time: 24 hours	0.76	2.44	109
concentration: 13.7 (µM), S9 metabolic activation: with S9, exposure time: 3-4 hours	0.36	1.48	79
concentration: 13.7 (µM), S9 metabolic activation: without S9, exposure time: 24 hours	0.88	2.54	98.9
concentration: 17.2 (µM), S9 metabolic activation: with S9, exposure time: 3-4 hours	0.2	1.36	71.4
concentration: 17.2 (µM), S9 metabolic activation: without S9, exposure time: 24 hours	0.62	2.1	114
concentration: 21.5 (µM), S9 metabolic activation: with S9, exposure time: 3-4 hours	0.18	1.16	87.7
concentration: 21.5 (µM), S9 metabolic activation: without S9, exposure time: 24 hours	0.56	2.54	113
concentration: 26.8 (µM), S9 metabolic activation: with S9, exposure time: 3-4 hours	0.24	1.3	71.6
concentration: 26.8 (µM), S9 metabolic activation: without S9, exposure time: 24 hours	0.76	1.56	103
concentration: 33.6 (µM), S9 metabolic activation: with S9, exposure time: 3-4 hours	0.18	1.44	98.9
concentration: 33.6 (µM), S9 metabolic activation: without S9, exposure time: 24 hours	0.74	2.32	102
concentration: 41.9 (µM), S9 metabolic activation: with S9, exposure time: 3-4 hours	0.28	1.32	116
concentration: 41.9 (µM), S9 metabolic activation: without S9, exposure time: 24 hours	0.7	1.8	104
concentration: 52.4 (µM), S9 metabolic activation: with S9, exposure time: 3-4 hours	0.32	1.32	147
concentration: 52.4 (µM), S9 metabolic activation: without S9, exposure time: 24 hours	0.86	1.7	112
concentration: 65.5 (µM), S9 metabolic activation: with S9, exposure time: 3-4 hours	0.34	1.22	91
concentration: 65.5 (µM), S9 metabolic activation: without S9, exposure time: 24 hours	0.8	1.86	111
concentration: 81.9 (µM), S9 metabolic activation: with S9, exposure time: 3-4 hours	0.28	1.42	117
concentration: 81.9 (µM), S9 metabolic activation: without S9, exposure time: 24 hours	0.86	1.8	113
concentration: 102 (µM), S9 metabolic activation: with S9, exposure time: 3-4 hours	0.3	1.4	108
concentration: 102 (µM), S9 metabolic activation: without S9, exposure time: 24 hours	1.02	2.16	103
concentration: 128 (µM), S9 metabolic activation: with S9, exposure time: 3-4 hours	0.28	1.56	89.5
concentration: 128 (µM), S9 metabolic activation: without S9, exposure time: 24 hours	1.22	2.26	104
concentration: 160 (µM), S9 metabolic activation: with S9, exposure time: 3-4 hours	0.28	1.06	113
concentration: 160 (µM), S9 metabolic activation: without S9, exposure time: 24 hours	1.28	2.86	105
concentration: 200 (µM), S9 metabolic activation: with S9, exposure time: 3-4 hours	0.18	1.1	122
concentration: 200 (µM), S9 metabolic activation: without S9, exposure time: 24 hours	1.44	2.86	98

Reference: the supplement of paper PMC9151546
